Assay results taken from PubChem BioAssay AID2147 (National Center for Advancing Translational Sciences (NCATS), 2009).
Screen size: about 230,000 compounds; about 3,600 (1.6%) were called active. This list was built around the results that the source calls inconclusive (neither active nor inactive); the mix of calls is not that of the screen. The call rests on the fitted dose curve; in most records, active means well fitted inhibition curve with a large enough effect (not every such curve was filed as active); inconclusive means small, poorly fitted or top-dose-only effect, or another doubt; inactive means no such curve, though single readings can be large or run the other way. Potencies beside an inconclusive call are fits to weak or partial responses and may not hold up.

What follows are compounds tested against Lysine-specific demethylase 4E (Homo sapiens) (UniProt B2RXH2) (assay: qHTS Assay for Inhibitors of Human Jumonji Domain Containing 2E (JMJD2E)). Settings: JMJD2E catalytic domain, FDH-coupled NADH fluorescence (FDH is formaldehyde dehydrogenase); series mostly up to 57.1 µM; activity change, negative = inhibition: at the top concentration.
Further: nearly all actives have a fitted effect of over 50% in size.
Potency means the concentration at half of the fitted maximal effect; tags describe the fitted curve by direction and shape.
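Wherever activity change, negative = inhibition is given: 0% = wells with enzyme and -100% = buffer wells without enzyme.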

UniProt B2RXH2, sequence (B2RXH2 whole entry, looked up, the tested form may be a part): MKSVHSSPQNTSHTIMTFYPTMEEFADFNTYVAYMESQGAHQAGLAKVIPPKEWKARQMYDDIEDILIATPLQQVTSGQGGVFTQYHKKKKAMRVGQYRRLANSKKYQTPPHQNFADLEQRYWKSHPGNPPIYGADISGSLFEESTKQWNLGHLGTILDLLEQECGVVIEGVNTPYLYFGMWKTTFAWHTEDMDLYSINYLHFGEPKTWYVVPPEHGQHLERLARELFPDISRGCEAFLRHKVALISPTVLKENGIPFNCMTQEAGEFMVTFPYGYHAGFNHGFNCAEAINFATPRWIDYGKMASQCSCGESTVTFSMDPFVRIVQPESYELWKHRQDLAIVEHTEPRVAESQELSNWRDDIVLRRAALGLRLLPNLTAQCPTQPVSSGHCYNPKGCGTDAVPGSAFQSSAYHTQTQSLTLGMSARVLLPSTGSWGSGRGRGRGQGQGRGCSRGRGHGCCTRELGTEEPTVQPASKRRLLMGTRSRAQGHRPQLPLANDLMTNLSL

SMILES	Potency	activity change, negative = inhibition
CCCC(=O)NCCc1cc2c(C)ccc(C)c2[nH]c1=O	inconclusive: 20 µM [inhibitor, partial curve]	–
COc1ccc(C(c2nnnn2C(C)(C)C)N2CCN(c3nc4ccccc4s3)CC2)cc1 (stereo not drawn)	–	inactive: -0.844%
CCc1ccc(/C=C/C(=O)c2cc(Br)ccc(=O)c2O)cc1	inconclusive: 20 µM [inhibitor, partial curve]	–
CC(C)c1ccc(CN(C)CC(O)c2ccccc2)cc1 (stereo not drawn)	inconclusive: 39.8 µM [inhibitor, single point]	–
Cc1ccc2[nH]c(=O)c(C3=NN(C(=O)CCC(=O)O)C(c4cccs4)C3)c(-c3ccccc3)c2c1 (stereo not drawn)	inconclusive: 28.2 µM [inhibitor, partial curve]	–
Cc1ccc2nc(NC(=O)c3ccc(NS(=O)(=O)c4cccs4)cc3)sc2c1	inconclusive: 35.5 µM [inhibitor, partial curve]	–
CCOC(=O)Cc1c(C)[nH]c(=S)[nH]c1=O	–	inactive: 3.07%
COc1nc(-c2ccccc2)ccc1-c1noc(C)n1	inconclusive: 35.5 µM [inhibitor, single point]	–
CCCN(C(=O)CSc1cc(-c2ccccc2)c2ccc(OC)cc2n1)C1CCS(=O)(=O)C1 (stereo not drawn)	inconclusive: 35.5 µM [inhibitor, single point]	–
CN1C(=O)c2cccc(NC(=O)CCc3ccccc3)c2C1=O	inconclusive: 28.2 µM [inhibitor, partial curve]	–
Clc1ccc(-c2cc(-c3nnc4n3CCCCC4)c3ccccc3n2)cc1	inconclusive: 28.2 µM [inhibitor, single point]	–
Cc1csc2ncc(C(=O)NCc3ccccc3Cl)c(=O)n12	inconclusive: 22.4 µM [inhibitor, partial curve]	–
CN(C)S(=O)(=O)c1cccc(NC(=O)c2n[nH]c(=O)c3ccccc23)c1	inconclusive: 5.01 µM [inhibitor, single point]	–
O=C(CCCCCn1c(SCc2ccncc2)nc2ccccc2c1=O)NCc1ccco1	–	inactive: -25.6%
CC1(C)CC(=O)C(C=NCCN2CCN(C3CC(=O)N(c4ccc(Cl)c(Cl)c4)C3=O)CC2)=C(O)C1 (stereo not drawn)	–	inactive: -0.489%
COc1ccc(OC)c(CN2CCCC(C(=O)N3CCCCC3)C2)c1 (stereo not drawn)	inconclusive: 25.1 µM [inhibitor, single point]	–
O=C(N/N=C/c1ccc(O)cc1)c1cc[n+](Cc2ccccc2)cc1	–	inactive: -0.883%
CCn1cc(C(=O)NCc2cccnc2)c(=O)c2cc(F)c(N3CCN(C(=O)c4ccco4)CC3)cc21	inconclusive: 22.4 µM [inhibitor, partial curve]	–
O=C(COc1cccnc1[N+](=O)[O-])N1CCN(S(=O)(=O)c2ccccc2)CC1	inconclusive: 39.8 µM [inhibitor, single point]	–
O=C(CSc1ccc2ccccc2n1)c1ccccc1	–	inactive: -3.25%
Cc1cccc2c(N=Nc3ccc(S(=O)(=O)Nc4cccc(Cl)c4)cc3[N+](=O)[O-])c(O)[nH]c12	–	inactive: 5.62%
O=C(c1ccc2c(c1)OCO2)C1CCCN(C2CCN(CCc3ccccc3)CC2)C1 (stereo not drawn)	inconclusive: 22.4 µM [inhibitor, single point]	–
O=c1oc2ccccc2cc1-c1csc(Nc2nc3c(F)cccc3s2)n1	–	inactive: 3.96%

SMILES	Potency	activity change, negative = inhibition
COc1cccc(/C=C/C(=O)NNC(=O)CCN2CCN(Cc3ccccc3)CC2)c1	inconclusive: 28.2 µM [inhibitor, single point]	–
COc1ccc(S(=O)(=O)N2CCCN(CC(=O)Nc3ccc4c(c3)OCO4)CC2)cc1	–	inactive: -3.65%
COc1ccc(-c2[nH]ncc2CNCCn2cccn2)c(F)c1	inconclusive: 35.5 µM [inhibitor, partial curve]	–
COc1ccc2oc(=O)c(NC(=O)C3CCCCC3)cc2c1	inconclusive: 8.91 µM [inhibitor, single point]	–
Oc1ccccc1C(=S)N1CCN(c2cccc(Cl)c2)CC1	–	inactive: -1.1%
O=c1[nH]c2ccc(S(=O)(=O)N3CCN(C4CCCCC4)CC3)cc2[nH]c1=O	inconclusive: 25.1 µM [inhibitor, partial curve]	–
CCOC(=O)NC(=O)CSc1nc(C)cc(C)c1C#N	inconclusive: 22.4 µM [inhibitor, partial curve]	–
CCc1nc(NCCO)c(C#N)c2c1CSC(C)(C)C2	inconclusive: 22.4 µM [inhibitor, partial curve]	–
NC(=O)N/N=C/c1cc(Br)ccc1OC(=O)c1ccccc1	–	inactive: -1.54%
CC#CCN1c2ccccc2[C@]23C[C@@H](C(=O)OC)N(S(=O)(=O)c4cccs4)C2=NC(C(=O)OC)=C(C(=O)OC)[C@H]13	–	inactive: 1.13% [at 11.4 µM]
N#C/C(=C(/O)CCCl)c1ccccn1	inconclusive: 25.1 µM [inhibitor, partial curve]	–
Cc1ccc(Nc2nnc(-c3ccc(N4CCOCC4)c([N+](=O)[O-])c3)c3ccccc23)cc1	–	inactive: -0.732%
COCCn1c(C)cc(/C=C2/NC(=O)N(c3ccc(Cl)cc3)C2=O)c1C	inconclusive: 39.8 µM [inhibitor, single point]	–
CCn1nc(C)c(/C=N/NC(=O)c2ccc3c(c2)c(C)c(C)n3Cc2ccccc2)c1C	inconclusive: 39.8 µM [inhibitor, single point]	–
Cc1ccc(/C=N/Nc2ncnc3nc[nH]c23)cc1	inconclusive: 39.8 µM [inhibitor, single point]	–
Cc1cccc(-c2noc(-c3cc4ccccc4oc3=O)n2)c1	inconclusive: 4.47 µM [inhibitor, single point]	–
Cc1nc(C)c(C(=O)C2=C(O)C(=O)N(CCN3CCOCC3)C2c2cccnc2)s1 (stereo not drawn)	inconclusive: 39.8 µM [inhibitor, single point]	–
CCCCCCOC(=O)C(C#N)c1nc2ccccc2nc1N1CCN(C)CC1 (stereo not drawn)	inconclusive: 28.2 µM [inhibitor, single point]	–
CCc1ccc(-c2csc(NC(=O)C3CCCO3)c2C(=O)OC(C)C)cc1 (stereo not drawn)	–	inactive: -7.48%
Cc1ccc(C(c2nnnn2CS(=O)(=O)c2ccc(C)cc2)N2CCN(c3ncccn3)CC2)cc1 (stereo not drawn)	inconclusive: 39.8 µM [inhibitor, single point]	–
Cc1cc(N2CCN(S(=O)(=O)c3ccc(Br)cc3)CC2)n2ncnc2n1	inconclusive: 35.5 µM [inhibitor, single point]	–
O=C(CCN1CCOCC1)NNC(=S)NC(=O)c1ccccc1	inconclusive: 39.8 µM [inhibitor, single point]	–
Cc1ccc2c(c1)C(=O)CC1(CCCCCC1)O2	inconclusive: 31.6 µM [inhibitor, partial curve]	–

SMILES	Potency	activity change, negative = inhibition
CCOc1ccc(Cn2nnc(C(=O)NCc3ccccc3)c2N)cc1	inconclusive: 39.8 µM [inhibitor, single point]	–
CCn1c(-c2ccccc2)ccc(C#N)c1=O	inconclusive: 28.2 µM [inhibitor, single point]	–
Cc1[nH]n(-c2ccccc2)c(=O)c1/C=N/O	–	inactive: -3.44%
CCOC(=O)C1=C(C)NC(SCC(=O)O)=C(C#N)C1c1ccco1 (stereo not drawn)	inconclusive: 28.2 µM [inhibitor, single point]	–
COc1cc2cc(CN(Cc3nnnn3Cc3ccccc3)CC3CCCO3)c(=O)[nH]c2cc1OC (stereo not drawn)	inconclusive: 17.8 µM [inhibitor, partial curve]	–
COc1cccc(-n2c(SCC(=O)NC3CCCCC3)nc3n[nH]c(C)c3c2=N)c1	inconclusive: 31.6 µM [inhibitor, single point]	–
Cc1ccc(S(=O)(=O)N2CCN(S(=O)(=O)N3CCCCCC3)CC2)cc1	–	inactive: 3.5%
Clc1nssc1=Nc1ccc(Br)cc1	active: 11.2 µM	–
CC(=O)c1sc(NC(=O)COc2ccc(Cl)cc2C)nc1C	–	inactive: 2.28%
COC(=O)c1ccc(C(=O)OC)c(NC(=S)N2CCN(c3cccc(Cl)c3)CC2)c1	inconclusive: 39.8 µM [inhibitor, single point]	–
CCOC(=O)N/N=C/c1cc(C)n(-c2ccccc2)c1C	inconclusive: 35.5 µM [inhibitor, single point]	–
COc1ccc(-c2c([C@H]3[C@@H]4C=CCC[C@@]4(C)C(=O)N3Cc3ccccc3)ccc3ccccc23)cc1OC	inconclusive: 35.5 µM [inhibitor, single point]	–
CC(C)COC(=O)c1cccc2c1-c1ccccc1/C2=N\O	–	inactive: -21%
CCC(C)Nc1c2c(nc3c(-c4ccccc4)c(C)nn13)CCC2 (stereo not drawn)	inconclusive: 31.6 µM [inhibitor, single point]	–
Cc1ccc(NC(=O)CCl)cc1S(=O)(=O)N1CCCCCC1	–	inactive: -6.08%
CCN(CC)Cc1c(O)ccc2c(-c3ccccc3)cc(=O)oc12	inconclusive: 28.2 µM [inhibitor, single point]	–
COc1ccc2cc(-c3csc(-c4cccnc4)n3)ccc2c1	inconclusive: 39.8 µM [inhibitor, single point]	–
CN(C(=O)CSc1ncnc2sc(-c3ccccc3)cc12)C1CCS(=O)(=O)C1 (stereo not drawn)	inconclusive: 6.31 µM [inhibitor, single point]	–
CN1CCC2(CC1)Nc1nc(SCc3ccc(Cl)cc3)nn1C1=C2CN(C)CC1	inconclusive: 39.8 µM [inhibitor, single point]	–
CCOC(=O)N1CCC(Nc2cccc(SC)c2)CC1	inconclusive: 39.8 µM [inhibitor, single point]	–
CC(C)c1c(O)ccc2c1CCC1C(C)(C)CCC[C@@]21C (stereo partly drawn)	inconclusive: 25.1 µM [inhibitor, single point]	–
CC(C)OCc1c(C(=O)Nc2nccs2)oc2ccccc12	inconclusive: 35.5 µM [inhibitor, partial curve]	–
